This note sets out measurements from the supplement of paper PMC11417369.

± gives the standard deviation of the averaged measurements. This is one part of the list.

The assay deals with PfAP2-LT AP2 domain (GST-tagged). In words: gcPBM binding intensity (ln(normalized median fluorescence intensity)); higher = stronger DNA binding. The gist of the method: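 DNA-binding domains from P. falciparum, fused to GST and produced in E. coli, were put on an Agilent 4 × 180k double-stranded probe array for 1 h in 1× PBS holding 1% milk, 0.2 mg/ml BSA, 0.5% salmon testes DNA and 0.03% Triton X-100. Probes were primer-extended, 36 bp long and drawn from intergenic genomic regions, with negative controls included. After Alexa488 anti-GST antibody detection and a 488 nm scan, binding intensity was set as the highest Masliner-normalised natural-log median intensity across replicate spots of either probe orientation.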
Turning to “ATATACATTTAAATGTGTACATAATAAAATAAAAAA [XGTACX_site8170]”, the “gcPBM binding intensity (ln)” value worked out at 8.81 ± 0.42. Take “CAAAAAAAAAAAAAAACACACATTAAATTAGAAAGA [CACACA_site7271]”: the “gcPBM binding intensity (ln)” value turned out to be 8.62 ± 0.54. On to “GCTAATTTATTTTGCAGTACATATATAATAATATAT [XGTACX_site478]”, for which the “gcPBM binding intensity (ln)” value came to 8.63 ± 0.42. Next, “TCCTCATTTTATCATACACACTTGTTTATATGGGTG [CACACA_site4650]”: 9 ± 0.44; “ACCCATAAAAATTATGCACACTTAATAAAGCGAAAT [CACACA_site5722]”: 8.96 ± 0.46.

Consider “ATAATTTATTTTAAAAGTACTCAATTTGCTTTTCTC [XGTACX_site5749]”, for which the “gcPBM binding intensity (ln)” value was determined as 8.65 ± 0.47. Next, “TTTACAAAAAATTATACACACACGTACAGATAAATA [CACACA_site4678]”: 9.26 ± 0.33; “TATATTTATTATAATTGTACATAAAATAAACTAAGA [XGTACX_site4318]”: 8.4 ± 0.4; “AAATAATTAAACATATGTACATATTATATATATATA [XGTACX_site6774]”: 8.94 ± 0.19. For the sequence “TTTTAAAGTTGTGAGCTTCATTTTTATTTATATGTA [CACACA_negctrl_site1505]”, the “gcPBM binding intensity (ln)” value worked out at 8.61 ± 0.54. For “TTACAATTAATAAAGTGTACTTAACTATTATATATA [XGTACX_site481]”, the “gcPBM binding intensity (ln)” value turned out to be 8.43 ± 0.4.

“TTGATCTATAATAATACACACTTACATAATTAATTA [CACACA_site6273]”: the “gcPBM binding intensity (ln)” value stood at 8.6 ± 0.45.

As to “ATATATATATATGTCTGTACATAAAAAATAATAAAT [XGTACX_site3122]”, the “gcPBM binding intensity (ln)” value is 8.975 ± 0.064.

“GGAAAATGAAAAACAAAAAAAAAAAAAAAAAAATGA [TGCATGCA_negctrl_site432]”: the “gcPBM binding intensity (ln)” value was 8.57 ± 0.53.

“ATATTCCTACATACAACACACGACGTTCTCATAAGA [CACACA_site231]”: the “gcPBM binding intensity (ln)” value was found to be 8.93 ± 0.29. Consider “AAAAATAGACAAAAGAGTACAAGAAAAAAAGGGTTC [XGTACX_site7843]”, for which the “gcPBM binding intensity (ln)” value came out at 8.98 ± 0.55. As for “ACATCTGTTATTTGTGGTACTAAAAAAATATATAGT [XGTACX_site8322]”, the figure is 8.63 ± 0.36; as for “TCTTTTTAGATATATACACACCGTGTCTACCTATAC [CACACA_site7551]”, 9.29 ± 0.73. Turning to “ATAATATAAATACAAACACACAATTGTGTCCACATT [CACACA_site6920]”, the “gcPBM binding intensity (ln)” value was 9.28 ± 0.38. For “TTTTTAAATATAAACAAAAAAAAAAAATATATCAAT [XGTACX_negctrl_site328]”, the “gcPBM binding intensity (ln)” value was 8.31 ± 0.29.

With “ATCATATTTATGTTGGTGCATTATGCATGGATTTTA [GTGCAC_site9795]”, the “gcPBM binding intensity (ln)” value came out at 8.74 ± 0.47. As for “ATTTTTATTTTTATTTGTACTTATATATTCTTAAGC [XGTACX_site4122]”, the “gcPBM binding intensity (ln)” value is 8.85 ± 0.47. Consider “TATATGTATAGAAAATGTACATATAAATATATATAT [XGTACX_site3420]”, for which the “gcPBM binding intensity (ln)” value was determined as 8.88 ± 0.45. Consider “TTTTTTTTTTTTTGCACACACCATATTTATAGAAAT [CACACA_site5772]”, for which the “gcPBM binding intensity (ln)” value turned out to be 9.21 ± 0.38.

Regarding TAAAATTAATTTCTGTTGCACTTATTATTAATTAAC, the “gcPBM binding intensity (ln)” value was 8.73 ± 0.42. With “ATATTATACCCGTGTACACATTATAACCATATATAA [CACACA_site5933]”, the “gcPBM binding intensity (ln)” value was determined as 8.88 ± 0.42.

Regarding “AATATAATATAATGCACACATAAAACAAAAAAAAAA [CACACA_site3012]”, the “gcPBM binding intensity (ln)” value amounted to 9.22 ± 0.49. As for “AAATATATCATACAAAGTACTTGGAATTAATATATA [XGTACX_site8907]”, the figure is 8.71 ± 0.44; as for “GTTGATACATGAAGCTGTACATAATATTTGTCATTT [XGTACX_site8628]”, 8.96 ± 0.36; as for “TCTTTTAAATAACAACATAAATAAATAAATAAATAA [GTGCAC_negctrl_site319]”, 8.28 ± 0.37. Regarding “TAATTTTTCCAACTTTGTACAGATATATTAATAAAA [XGTACX_site7856]”, the “gcPBM binding intensity (ln)” value amounted to 8.13 ± 0.35. For the sequence TAAATTAATAAACAAGTGCATATATATATATATATA, the “gcPBM binding intensity (ln)” value was 9.65 ± 0.67. As for “TTTTTACTATTTATATGACTAAAAATATATTGAATA [CACACA_negctrl_site188]”, the figure is 8.26 ± 0.53. Next, “GTCATATTAATATGTACACACATATTTATATTTATA [CACACA_site6798]”: 8.93 ± 0.47; “TTTTATGTAACATCACGTACTTATATTTAAGTATTC [XGTACX_site7459]”: 8.96 ± 0.47; “CAAGCACACGGACACACACACACACGCGCACGCACA [CACACA_site6307]”: 10.3 ± 0.28. “CAATTTATTTTTATTACACACTATCCAAGTAATTTC [CACACA_site7402]”: the “gcPBM binding intensity (ln)” value was 8.79 ± 0.42. Regarding “TATAGCAAAAAATTTACACACATGTTTTTTCTATAC [CACACA_site325]”, the “gcPBM binding intensity (ln)” value came to 9.08 ± 0.42.

Turning to “GGCATTTTATGAAGTAGTACCATAAATATTAAAGAT [XGTACX_site5287]”, the “gcPBM binding intensity (ln)” value was 8.88 ± 0.49. On to “CTGAAGGAAAAAGAAAGTACTTTTTTTTTTTTGAAG [XGTACX_site5973]”, for which the “gcPBM binding intensity (ln)” value is 8.22 ± 0.68. Take “CCTTTATTTTATATGTGTACTAAATTGTATATATAT [XGTACX_site8717]”: the “gcPBM binding intensity (ln)” value was found to be 8.86 ± 0.42. As for “ATGTTTTATAAAAGGCGTACACATATGCTTAAGTAA [XGTACX_site6232]”, the “gcPBM binding intensity (ln)” value is 8.9 ± 0.35.

“AAAAAAAAAATATCATGTACAAATATAATAAAATTT [XGTACX_site3896]”: the “gcPBM binding intensity (ln)” value was found to be 8.7 ± 0.55.

For the sequence “AAATTTTTTATGAACACACAAATACACGCACTCAAA [CACACA_site7286]”, the “gcPBM binding intensity (ln)” value was 9.1 ± 0.27.
